Laboratory results published in the supplement of paper PMC6451100.
This is one part of the list. Read counts after selection give these values, which scatter widely.

Each sequence was assayed on Drosophila AGO1 (endogenous, S2-R+ lysate) (assay: AGO1 loading enrichment factor (IP read count / input read count, not library-size normalised) (ratio); higher = more efficient loading into AGO1). Conditions: randomized region: 5' 5N of miR-317 loop.
Method: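 HISSA: 5'-phosphorylated, 32P-labelled 20-nt ssRNA oligos (miR-317 loop, first 5 nt randomized, constant 3' part TGAAATGCAAGCAAG as printed in methods; DNA letters for RNA) incubated 1 h at 25°C in S2-R+ cell lysate. Endogenous AGO1 was immunopurified with anti-AGO1 and bound oligos were sequenced after splinted ligation.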
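Note: S2-R+ lysate came from cells stably expressing FLAG-tagged AGO2, enrichment per 5N variant computed with FASTAptamer, reads lacking the constant 3′ segment discarded.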

Sequence | AGO1 loading enrichment factor
AGCCCTGAAATGCAAGCAAG | 0.133
CTCAATGAAATGCAAGCAAG | 0.0698
TAATTTGAAATGCAAGCAAG | 0.151
AGGGTTGAAATGCAAGCAAG | 0.29
AGCTATGAAATGCAAGCAAG | 0.0765
GCGCCTGAAATGCAAGCAAG | 1.18
CAGTTTGAAATGCAAGCAAG | 0.0401
TATCATGAAATGCAAGCAAG | 0.767
GGGAGTGAAATGCAAGCAAG | 0.77
TTAGGTGAAATGCAAGCAAG | 0.233
TAATATGAAATGCAAGCAAG | 0.284
GTACTTGAAATGCAAGCAAG | 0.0328
CGCCATGAAATGCAAGCAAG | 0.25
ATGCATGAAATGCAAGCAAG | 0.412
AACAGTGAAATGCAAGCAAG | 0.156
ACCAATGAAATGCAAGCAAG | 0.134
TGGAATGAAATGCAAGCAAG | 0.31
TTAAATGAAATGCAAGCAAG | 0.778
CTATTTGAAATGCAAGCAAG | 0.0648
TTTACTGAAATGCAAGCAAG | 0.953
TTCTTTGAAATGCAAGCAAG | 0.288
CCTTTTGAAATGCAAGCAAG | 0.0182
TACCATGAAATGCAAGCAAG | 0.386
GCTCATGAAATGCAAGCAAG | 0.0697
CTTATTGAAATGCAAGCAAG | 0.0136

Sequence | AGO1 loading enrichment factor
CAGTCTGAAATGCAAGCAAG | 0.128
TTACATGAAATGCAAGCAAG | 0.221
AAGAATGAAATGCAAGCAAG | 0.188
GGGCGTGAAATGCAAGCAAG | 0.413
CAGGCTGAAATGCAAGCAAG | 0.0332
CTCCTTGAAATGCAAGCAAG | 0.0359
AAGAGTGAAATGCAAGCAAG | 0.236
AAGCATGAAATGCAAGCAAG | 0.135
AGGGCTGAAATGCAAGCAAG | 0.0472
TGTGATGAAATGCAAGCAAG | 0.248
CGCACTGAAATGCAAGCAAG | 0.0857
TTGCGTGAAATGCAAGCAAG | 0.174
CCCTCTGAAATGCAAGCAAG | 0.943
TTCGTTGAAATGCAAGCAAG | 0.224
TATACTGAAATGCAAGCAAG | 0.476
TCCAATGAAATGCAAGCAAG | 0.166
CCAGCTGAAATGCAAGCAAG | 0.0313
GCGTATGAAATGCAAGCAAG | 0.0848
GAACTTGAAATGCAAGCAAG | 0.0498
ATTTTTGAAATGCAAGCAAG | 0.0661
GCCCGTGAAATGCAAGCAAG | 0.0717
AGTATTGAAATGCAAGCAAG | 0.0959
GCCGCTGAAATGCAAGCAAG | 0.0264
GCCCCTGAAATGCAAGCAAG | 0.116
TATGATGAAATGCAAGCAAG | 0.304

Sequence | AGO1 loading enrichment factor
ATACCTGAAATGCAAGCAAG | 0.179
TACAGTGAAATGCAAGCAAG | 0.441
ACCTTTGAAATGCAAGCAAG | 0.394
GTTATTGAAATGCAAGCAAG | 0.0975
GCCGTTGAAATGCAAGCAAG | 0.098
AATCGTGAAATGCAAGCAAG | 0.176
AAACTTGAAATGCAAGCAAG | 0.0459
CTGCGTGAAATGCAAGCAAG | 0.131
TAACTTGAAATGCAAGCAAG | 0.282
TGCCCTGAAATGCAAGCAAG | 0.266
GTGCGTGAAATGCAAGCAAG | 0.124
ACCGGTGAAATGCAAGCAAG | 0.303
ATCTCTGAAATGCAAGCAAG | 0.156
ATCAGTGAAATGCAAGCAAG | 0.243
TCTCATGAAATGCAAGCAAG | 0.588
ATGTCTGAAATGCAAGCAAG | 0.173
TCGTTTGAAATGCAAGCAAG | 0.274
GCAAGTGAAATGCAAGCAAG | 0.0277
GTTACTGAAATGCAAGCAAG | 0.105
TGAAATGAAATGCAAGCAAG | 0.186
TCACCTGAAATGCAAGCAAG | 1.26
AGGCATGAAATGCAAGCAAG | 0.0747
CTACGTGAAATGCAAGCAAG | 0.0797
AAATATGAAATGCAAGCAAG | 0.116
CTAATTGAAATGCAAGCAAG | 0.13

Sequence | AGO1 loading enrichment factor
GACAGTGAAATGCAAGCAAG | 1.82
GGATTTGAAATGCAAGCAAG | 0.0728
CAATTTGAAATGCAAGCAAG | 0.172
AACACTGAAATGCAAGCAAG | 0.238
CCATATGAAATGCAAGCAAG | 0.0956
TTCATTGAAATGCAAGCAAG | 0.213
TTGTATGAAATGCAAGCAAG | 0.234
AGGGATGAAATGCAAGCAAG | 2.92
CATCTTGAAATGCAAGCAAG | 0.0253
ATATATGAAATGCAAGCAAG | 0.106
AGATTTGAAATGCAAGCAAG | 0.0568
ATTTATGAAATGCAAGCAAG | 0.128
CGTTGTGAAATGCAAGCAAG | 0.00649
GTCCGTGAAATGCAAGCAAG | 0.0948
CGTTATGAAATGCAAGCAAG | 0.0891
CACCGTGAAATGCAAGCAAG | 0.09
ACCCGTGAAATGCAAGCAAG | 0.345
GTGAGTGAAATGCAAGCAAG | 0.133
AGGCTTGAAATGCAAGCAAG | 0.0177
TAAGTTGAAATGCAAGCAAG | 0.324
GCATCTGAAATGCAAGCAAG | 0.0756
AATGGTGAAATGCAAGCAAG | 0.191
GTCATTGAAATGCAAGCAAG | 0.141
GTGCCTGAAATGCAAGCAAG | 0.211
ATGGTTGAAATGCAAGCAAG | 0.259

Sequence | AGO1 loading enrichment factor
CCTGATGAAATGCAAGCAAG | 0.034
TTCGGTGAAATGCAAGCAAG | 0.376
TTCTCTGAAATGCAAGCAAG | 0.225
CGGCGTGAAATGCAAGCAAG | 0.153
TTCAGTGAAATGCAAGCAAG | 0.386
TGCTATGAAATGCAAGCAAG | 0.207
ACAACTGAAATGCAAGCAAG | 0.175
AGGTTTGAAATGCAAGCAAG | 0.0606
CCCCCTGAAATGCAAGCAAG | 0.2
CATCGTGAAATGCAAGCAAG | 0.113
CGCTGTGAAATGCAAGCAAG | 0.0314
AGATATGAAATGCAAGCAAG | 0.107
CCTGCTGAAATGCAAGCAAG | 0.0086
GGATATGAAATGCAAGCAAG | 0.117
GCTACTGAAATGCAAGCAAG | 0.0632
TGGTGTGAAATGCAAGCAAG | 0.199
GGCAATGAAATGCAAGCAAG | 0.108
GTACATGAAATGCAAGCAAG | 0.188
TACGGTGAAATGCAAGCAAG | 0.486
AAAGGTGAAATGCAAGCAAG | 0.158
GGCATTGAAATGCAAGCAAG | 0.0739
CTAAATGAAATGCAAGCAAG | 0.129
AGTGGTGAAATGCAAGCAAG | 0.297
TCACTTGAAATGCAAGCAAG | 1.1
TTTTCTGAAATGCAAGCAAG | 0.25

Sequence | AGO1 loading enrichment factor
TGATGTGAAATGCAAGCAAG | 0.15
AGCGTTGAAATGCAAGCAAG | 0.0823
AGCTGTGAAATGCAAGCAAG | 0.0535
AACGATGAAATGCAAGCAAG | 0.298
CAGGATGAAATGCAAGCAAG | 0.186
GCCTGTGAAATGCAAGCAAG | 0.0232
ATAAATGAAATGCAAGCAAG | 0.155
AGAGATGAAATGCAAGCAAG | 0.132
AAATTTGAAATGCAAGCAAG | 0.077
AGCCGTGAAATGCAAGCAAG | 0.154
TCGCTTGAAATGCAAGCAAG | 0.87
TAGATTGAAATGCAAGCAAG | 0.322
GTATTTGAAATGCAAGCAAG | 0.0812
GGGTGTGAAATGCAAGCAAG | 0.59
GTCGCTGAAATGCAAGCAAG | 0.0764
GCCGGTGAAATGCAAGCAAG | 0.117
TAGTCTGAAATGCAAGCAAG | 0.418
TATGTTGAAATGCAAGCAAG | 0.334
TCACATGAAATGCAAGCAAG | 0.381
CCAACTGAAATGCAAGCAAG | 0.178
AGTCATGAAATGCAAGCAAG | 0.126
TCTGGTGAAATGCAAGCAAG | 0.331
CCGCATGAAATGCAAGCAAG | 0.0573
CGTCTTGAAATGCAAGCAAG | 0.00399
ATTCCTGAAATGCAAGCAAG | 0.37

Sequence | AGO1 loading enrichment factor
TAAGGTGAAATGCAAGCAAG | 0.379
ACCAGTGAAATGCAAGCAAG | 0.214
TGATCTGAAATGCAAGCAAG | 0.23
GATTTTGAAATGCAAGCAAG | 0.172
CTATGTGAAATGCAAGCAAG | 0.0429
ACTCATGAAATGCAAGCAAG | 0.247
TAACGTGAAATGCAAGCAAG | 0.365
CGAGGTGAAATGCAAGCAAG | 0.29
GCCGATGAAATGCAAGCAAG | 0.17
GCCAATGAAATGCAAGCAAG | 0.132
AATCCTGAAATGCAAGCAAG | 0.375
CTTTTTGAAATGCAAGCAAG | 0.0868
GTTCATGAAATGCAAGCAAG | 0.217
GACGGTGAAATGCAAGCAAG | 19
AGTGTTGAAATGCAAGCAAG | 0.108
AGGTCTGAAATGCAAGCAAG | 0.164
CCGATTGAAATGCAAGCAAG | 0.171
CCCCGTGAAATGCAAGCAAG | 0.0175
CATTTTGAAATGCAAGCAAG | 0.0136
TCCTATGAAATGCAAGCAAG | 0.185
AGGATTGAAATGCAAGCAAG | 0.133
ATTGCTGAAATGCAAGCAAG | 0.115
TACTCTGAAATGCAAGCAAG | 0.167
CGAAGTGAAATGCAAGCAAG | 0.0901
GTAACTGAAATGCAAGCAAG | 0.115

Sequence | AGO1 loading enrichment factor
TAGTGTGAAATGCAAGCAAG | 0.27
GGGAATGAAATGCAAGCAAG | 0.392
AGTGATGAAATGCAAGCAAG | 0.228
ACAGCTGAAATGCAAGCAAG | 0.0331
TTATCTGAAATGCAAGCAAG | 0.0825
CCGAATGAAATGCAAGCAAG | 0.222
CGCAGTGAAATGCAAGCAAG | 0.021
GCCCATGAAATGCAAGCAAG | 0.0204
CCATTTGAAATGCAAGCAAG | 0.151
TATATTGAAATGCAAGCAAG | 0.278
TAATCTGAAATGCAAGCAAG | 0.339
TTATTTGAAATGCAAGCAAG | 0.235
CCACGTGAAATGCAAGCAAG | 0.245
GCGTTTGAAATGCAAGCAAG | 0.0387
TCCGGTGAAATGCAAGCAAG | 0.24
TCGTATGAAATGCAAGCAAG | 0.133
ATATGTGAAATGCAAGCAAG | 0.139
AGCTCTGAAATGCAAGCAAG | 0.0788
GTAATTGAAATGCAAGCAAG | 0.16
TCGCGTGAAATGCAAGCAAG | 0.439
TCTTATGAAATGCAAGCAAG | 0.0931
GCAATTGAAATGCAAGCAAG | 0.052
